In PubChem BioAssay AID360 (National Center for Advancing Translational Sciences (NCATS), 2006):
In all, about 48,000 compounds went through this assay and about 550 (1.1%) were called active. About 4% were inconclusive and are not listed. Rule as the data show it: active = potency below about 15 µM; inconclusive = mostly about 16 µM to 33 µM; inactive = weaker than that. Some of the results follow.

target: Lysosomal acid glucosylceramidase (Homo sapiens) (UniProt P04062); test: Glucocerebrosidase; conditions: purified enzyme, resorufin glucoside fluorescence (screen aimed at inhibitors), 20 min; series mostly up to 77 µM;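 also: the screen sought inhibitors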
Chain of UniProt P04062 (P04062 whole entry, looked up): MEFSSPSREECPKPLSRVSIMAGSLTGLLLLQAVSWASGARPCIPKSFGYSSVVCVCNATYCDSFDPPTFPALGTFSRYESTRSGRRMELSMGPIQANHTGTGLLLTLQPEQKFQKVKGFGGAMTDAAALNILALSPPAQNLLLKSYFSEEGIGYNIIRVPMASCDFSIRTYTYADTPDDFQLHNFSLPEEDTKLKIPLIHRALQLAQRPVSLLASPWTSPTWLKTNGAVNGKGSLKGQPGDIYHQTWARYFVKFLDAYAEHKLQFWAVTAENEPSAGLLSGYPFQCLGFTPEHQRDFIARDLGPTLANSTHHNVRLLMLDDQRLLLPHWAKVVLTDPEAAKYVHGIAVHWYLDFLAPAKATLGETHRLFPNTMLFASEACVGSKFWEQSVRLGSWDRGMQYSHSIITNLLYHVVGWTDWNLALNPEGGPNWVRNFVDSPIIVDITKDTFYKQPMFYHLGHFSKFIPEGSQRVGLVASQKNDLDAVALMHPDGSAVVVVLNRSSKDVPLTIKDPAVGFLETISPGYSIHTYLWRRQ
In short: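 Compounds titrated against 0.2 nM normal enzyme, 30 uM resorufin beta-D-glucopyranoside substrate, citrate/phosphate buffer with taurocholate and tween-20, pH 5.9. Reaction ran 20 min at room temperature; fluorescence (Ex 548/Em 600) gave AC50.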
Potency is read from the fitted curve at half-maximal effect.

Potency, inactive:
COc1ccc(NC(=O)[C@@H]2[C@@H]3C(=O)N(C4CCCCC4)C(=O)[C@@H]3C3c4ccccc4C=CN32)cc1 (some centres undefined)
Cc1cc2c(nn1)CCc1nonc1-2 > 76.9 µM
CC1CN(Cc2nc3c(c(=O)n(C)c(=O)n3C)n2CCCc2ccccc2)CC(C)O1 (centres undefined) > 76.9 µM
CC(C)(C)C1CCC(OC(=O)c2ccncc2)CC1 (centres undefined) > 76.9 µM
CN(c1ccccc1C(=O)Nc1cccnc1)S(C)(=O)=O > 76.9 µM
COc1ccc(C(=O)n2c(-c3ccco3)nc3ccccc32)cc1 > 76.9 µM
CCC(Sc1ccc(C(=O)O)cc1)C(=O)O (centres undefined) > 76.9 µM
Cc1ccc(C)c(N(CC(=O)NCc2ccco2)C(=O)CCC(=O)Nc2ccccn2)c1 > 76.9 µM
O=C(CCn1c(=O)sc2ccccc21)NCCC1=CCCCC1 > 76.9 µM
OC(COc1ccccc1)Cn1cc(Br)cn1 (centres undefined) > 76.9 µM
COc1ccc2sc(C)nc2c1NC(C)=O > 76.9 µM
Cn1nc(OCc2ccccc2)ccc1=O > 76.9 µM
COc1ccc(C2=NOC(Cn3c(Cc4ccc(Cl)cc4)nc4c3c(=O)n(C)c(=O)n4C)C2)cc1 (centres undefined) > 76.9 µM
COc1cc2cc(CN(C(=O)Nc3ccccc3)C3CCCC3)c(=O)[nH]c2cc1OC > 76.9 µM
O=C(NCc1ccco1)c1cc(-c2ccncc2)nc2ccccc12 > 76.9 µM
CCN(CC)S(=O)(=O)c1cccc(-c2nnc(SC(C)C#N)n2Cc2ccccc2)c1 (centres undefined) > 76.9 µM
COc1ccccc1N1CCN(C(=O)CCc2ccc(S(=O)(=O)NC(C)C)cc2)CC1 > 76.9 µM
COC(=O)c1ccccc1NC(=O)N1CCN(C/C=C/c2ccccc2)CC1 > 76.9 µM
CS(=O)(=O)N(CCc1ccccc1)CC(=O)N1CCCCC1 > 76.9 µM
COc1cccc(OC)c1C(=O)Nc1ccc(CN2CCCCC2)cc1 > 76.9 µM
[N-]=[N+]=CC(=O)CCCN1C(=O)c2ccccc2C1=O > 76.9 µM
COCCCN1C(=O)C(=O)/C(=C(/O)c2ccc3c(c2)CC(C)O3)C1c1cccnc1 (centres undefined) > 76.9 µM
N#Cc1nc(Cc2cccc3ccccc23)oc1N1CCC(C(N)=O)CC1 > 76.9 µM
O=C(O)C1CCCN1C(=O)Oc1ccccc1 (centres undefined) > 76.9 µM
CC(=O)NC(C)C12CC3CC(CC(CC(=O)O)(C3)C1)C2 (centres undefined) > 76.9 µM
Cc1noc(C)c1CSc1nnc2scc(-c3ccccc3)n12 > 76.9 µM
CCCc1cc(=O)n2[nH]c(-c3ccc(Br)cc3)cc2n1
COc1ccc(CC(NC(C)=O)C(=O)NC2CCN(c3nnnn3-c3ccccc3)CC2)cc1 (centres undefined) > 76.9 µM
CC(N=c1ccccn1C(=O)Nc1ccc(F)cc1)c1ccco1 (centres undefined) > 76.9 µM
[O-][n+]1onc2c1CCc1nnc(-c3ccccc3)cc1-2 > 76.9 µM
COc1ccc(CCNC(=O)COC(=O)c2ccco2)cc1OC > 76.9 µM
O=C(O)C1C2C=CC(C2)C1C(=O)NCCCn1ccnc1 (centres undefined) > 76.9 µM
CCNc1nc(SCc2ccccc2)nc(N2CCOCC2)n1 > 76.9 µM
CCOC(=O)c1cc(CC)sc1N > 76.9 µM
CCOC(=O)C1CCN(C(=O)Cc2c(C(=O)O)[nH]c3ccccc23)CC1 > 76.9 µM
COc1ccc(Cn2c(CCC(=O)O)nc3cccnc32)cc1 > 76.9 µM
O=C(CCNS(=O)(=O)c1ccc(Cl)cc1)NCc1cccnc1 > 76.9 µM
CCC(C(=O)Nc1ccccc1C(=O)N1CCCC1)N1C(=O)c2ccccc2C1=O (centres undefined) > 76.9 µM
O=C(c1cc2ccccc2oc1=O)N1CCCC1 > 76.9 µM
N#CC1=C(N)n2c(s/c(=C\c3ccco3)c2=O)=C(C#N)C1c1ccco1 (centres undefined) > 76.9 µM
O=C(c1ccccc1)N1CCCOC1c1ccccc1 (centres undefined) > 76.9 µM
COc1cccc(C2/C(=C(\O)c3ccc4c(c3)OCO4)C(=O)C(=O)N2CCN(C)C)c1OC (centres undefined) > 76.9 µM
CCC(C)[C@H](NC(=O)NCc1ccco1)C(=O)O (some centres undefined) > 76.9 µM
CCOC(=O)CC1(CC(=O)OCC)NC(=O)c2c(C)sc(C(=O)OCC)c2N1 > 76.9 µM
CCC(=O)N1c2ccc(S(=O)(=O)CCC(=O)NCCC3=CCCCC3)cc2CC1C (centres undefined) > 76.9 µM
CCCOc1ccc(C(=O)C(c2ccccc2)N2CCOCC2)cc1 (centres undefined) > 76.9 µM
CC1Cc2cc(/C(O)=C3\C(=O)C(=O)N(CCN4CCOCC4)C3c3ccccc3F)ccc2O1 (centres undefined) > 76.9 µM
Cc1cc(C(=O)O)c(CCCN)s1 > 76.9 µM
COc1cc(N2CN=c3s/c(=C\c4ccccn4)c(=O)n3C2)cc(OC)c1OC > 76.9 µM
COCCCNC(=O)c1ccc(CS(=O)(=O)Cc2cccc(C)c2)o1 > 76.9 µM
O=C(COC(=O)c1cccs1)NCC1CCCO1 (centres undefined) > 76.9 µM
Nc1nonc1-c1nc2ccccc2n1CC(=O)N1CCCCC1
CN1CCN(S(=O)C23CC4CC(CC(C4)C2)C3)CC1 (centres undefined) > 76.9 µM
CCOC(=O)C(NC(C)=O)(Nc1ccc(S(=O)(=O)Nc2cc(C)nc(C)n2)cc1)C(F)(F)F (centres undefined) > 76.9 µM
Fc1ccc2[nH]c3c(N4CCN(C5CCCCC5)CC4)ncnc3c2c1 > 76.9 µM
CCCCNC(=O)c1cc(-c2ccc(F)cc2)on1 > 76.9 µM
COc1cc(C)nc(OCCNC(=O)COc2ccc(Cl)cc2Cl)n1 > 76.9 µM
Cc1nnc(SC(C)C(=O)NCC2CCCO2)n1-c1ccccc1 (centres undefined) > 76.9 µM
CCOC(=O)c1ccccc1NC(=O)c1cn(CC)c2nc(C)ccc2c1=O > 76.9 µM
